Data on 167 variants can be found in the RNAGym collection of RNA variant scans (doi:10.7554/elife.90254).

The source gives no read counts; variants with many changes may rest on few reads.

B1: LINE1-mini (parent)
chain: GGCAGAGCUCAACACAGCGUGGCAAAGUGGCUGUGGCUAGACUGCC

Variants of B1 are the subject of the data set. Nature of the data set: self-cleavage, relative activity (ratio to wild type); higher = more cleavage; in vitro, sequencing; the parent is a self-cleaving ribozyme.
C13U C15A C42G: the self-cleavage was found to be 0.03.
Consider C13G G30A C31A, for which the self-cleavage was determined as 0.28.
To C13U A39C A41G belongs 0.04; to C13A G22C A24C G27U G29C, 0.02; to C13A U20G G21U A39G, 0.04.
As for C13U C15U G21U, the self-cleavage was 0.13.
C13G A14C G19C G27C: the self-cleavage was 0.02.
C13U A16U A39U: the self-cleavage stood at 0.04.
Regarding C13G U32C C37G, the self-cleavage was determined as 0.08.
Take C13G U32C C37U: the self-cleavage is 0.11.
With C13G C31A G40U, the self-cleavage was 0.04.
With C13G C31G G35U the figure was 0.07; with C13G G21U C31G C42A C46A, 0.03; with C13G A24C C37U, 0.11.
As to C13G G19U C45A, the self-cleavage is 0.12.
As to C13U C15A U20A, the self-cleavage came out at 0.05.
Take C13G G21A C45U: the self-cleavage stood at 0.3.
As for C13A G27U U28C C31A, the self-cleavage turned out to be 0.02.
Regarding C13A U20A A24U A26U C31G U32G, the self-cleavage was determined as 0.05.
Consider C13G C15G G40A C45G, for which the self-cleavage is 0.02.
As for C13U A14U G21U G30C, the self-cleavage worked out at 0.05.
Take C13A U20A A25U: the self-cleavage came to 0.13.
As to C13U A25C C31A, the self-cleavage was 0.04.
C13U A16G C18U: the self-cleavage is 0.03.
C13G C15A G21A A25G G30A C45U: the self-cleavage turned out to be 0.03.
For C13G G33U U43A, the self-cleavage was 0.04.
As for C13U C15A G27A C46A, the self-cleavage stood at 0.09.
Consider C13G A16G U20G, for which the self-cleavage came to 0.01.
Regarding C13G A25U U28C G30A, the self-cleavage amounted to 0.1.
C13G A14U G30U: the self-cleavage was determined as 0.48.
Regarding C13G U34C U43G, the self-cleavage stood at 0.03.
To C13G G19U G27C belongs 0.02; to C13A U20A U43C G44U, 0.06.
To C13U A16C G40A belongs 0.06; to C13G G27U C42U, 0.03; to C13G G19U G22C, 0.22.
For C13G C23U C42A, the self-cleavage stood at 0.05.
On to C13A U20A G29U C46U, for which the self-cleavage came out at 0.08.
C13G A16G A25U G29C: the self-cleavage amounted to 0.01.
As for C13G G22U A25C U34G, the self-cleavage was 0.
In the case of C13U C18A G36U, the self-cleavage was 0.02.
With C13G A26U U28G C31G U43A, the self-cleavage stood at 0.01.
Consider C13U A14C A41C C42U, for which the self-cleavage turned out to be 0.01.
As for C13A G22A G30U C31A U34C A41C, the self-cleavage was 0.2.
As for C13U A26C U43C, the self-cleavage was 0.02.
To C13G G19U A39C G40C belongs 0.1; to C13G G35U C37G, 0.03.
As for C13U A14C C42G, the self-cleavage turned out to be 0.11.
For C13U C18A G29U G30U G36A, the self-cleavage came out at 0.16.
Turning to C13G C15A C37A C46G, the self-cleavage was found to be 0.03.
For C13G A24G G33C A41U, the self-cleavage came to 0.03.
Turning to C13A U20A G29U A41U, the self-cleavage stood at 0.07.
In the case of C13A G36A G40A, the self-cleavage stood at 0.29.
To C13U A16C G33A A41C belongs 0.02; to C13A G29A G36A, 0.21.
Consider C13G C42A C45U, for which the self-cleavage is 0.1.
Turning to C13G G19A U28G C31A, the self-cleavage stood at 0.03.
To C13G C18U U20G C37A U43C C46G belongs 0.08; to C13G C18U G19U, 0.05; to C13A G19U U20A A25U G40C, 0.11.
To C13U C15U C18A G33A U38A G40U G44A belongs 0.02.
With C13G G36A A39U the figure was 0.05; with C13G G27A U28G U43C, 0.04.
In the case of C13A G35A A41C, the self-cleavage is 0.07.
C13U A14G C15A: the self-cleavage is 0.11.
As for C13G C18A C23G G30A, the self-cleavage was found to be 0.06.
With C13U C15A A24G G35U the figure was 0.08; with C13A U20G U32G, 0.01.
As for C13G G22A C37G C42A C46A, the self-cleavage worked out at 0.04.
C13A G21C C37G G40C: the self-cleavage was 0.09.
C13U A14G G29C C31U: the self-cleavage is 0.06.
With C13G G36A G40U the figure was 0.28; with C13G G17A A24C C31U C37U C45A, 0; with C13A G29U C31U, 0.03.
With C13G C18G G29A C37U C42U the figure was 0.44; with C13A G27U U28C G29U U34A, 0.06; with C13G G21U C23U G40A, 0.37.
On to C13G U20C A26G G27A G30C G33U C45U, for which the self-cleavage is 0.
To C13G A14C A16G belongs 0.02.
With C13U A26C A41C, the self-cleavage is 0.03.
With C13G U20C G22U C37G G40C, the self-cleavage amounted to 0.02.
C13A G27C C31U A39U G40C: the self-cleavage was determined as 0.04.
On to C13G C18U C46G, for which the self-cleavage came out at 0.22.
C13G G21C U28C U34A G35U: the self-cleavage came out at 0.02.
As to C13A U34A U43C C46A, the self-cleavage was found to be 0.02.
Consider C13A G27A G33C, for which the self-cleavage worked out at 0.06.
As to C13G G17U G40A, the self-cleavage was found to be 0.
Consider C13G C18U U28C G36A C46A, for which the self-cleavage was found to be 0.02.
To C13G A14C A26G C31G U32G belongs 0.01; to C13U A26C U28A A39C, 0.05; to C13A U20G A41C G44A, 0.01.
With C13G A14G U20C A24C A39G the figure was 0.03; with C13G G22U G30A, 0.11.
C13G U20A G21U G36C C46A: the self-cleavage stood at 0.02.
For the variant C13A G30U G33C, the self-cleavage turned out to be 0.05.
For the variant C13A G30U G33A, the self-cleavage was 0.04.
With C13G C23U G36C the figure was 0.04.
As to C13G A14C G17U G19A G21C, the self-cleavage was 0.03.
For C13G A26U G29C G40C, the self-cleavage was found to be 0.02.
In the case of C13U A25C G44U, the self-cleavage was determined as 0.01.
On to C13G G21A G30U, for which the self-cleavage was 0.11.
With C13G A16C A39C the figure was 0.03; with C13G U20G A41G, 0.03; with C13G A14G C23U C37G C46U, 0.02.
As to C13U A16G G35U C45U, the self-cleavage was found to be 0.08.
With C13G A14U G36C A41U, the self-cleavage is 0.04.
With C13G G22A G33C G35A the figure was 0.01; with C13A U20C G29U G40U, 0.06.
With C13A G21C G27C C37A C46U the figure was 0.01; with C13A G36U A41C, 0.
With C13A G22C C37A the figure was 0.02; with C13U C15A U34G, 0.04; with C13G G19C G27A, 0.17.
Consider C13U C15U G22U A26G, for which the self-cleavage turned out to be 0.06.
Regarding C13G G17C G19A C23A, the self-cleavage was found to be 0.13.
On to C13U C15G G27U G33C G36C C45G, for which the self-cleavage was determined as 0.
To C13U A16C G19C U20C A24C U32G G36A belongs 0.05; to C13G U28G C46A, 0.05; to C13G C15A U20G A24U A26U, 0.02.
To C13U A24C U28C belongs 0.01.
C13A G21C G29A U34A: the self-cleavage is 0.11.
To C13G U34C C42U U43G belongs 0.47; to C13G G29C G36A, 0.06.
For C13A G29C C42U, the self-cleavage was found to be 0.14.
To C13U A24U G29A belongs 0.14; to C13G A25C G36A, 0.03.
With C13A G33U U38C A39U G40C C46A, the self-cleavage worked out at 0.02.
To C13A G35U C42G belongs 0.09.
As for C13G G22U U28A, the self-cleavage turned out to be 0.1.
With C13G A24G G33C, the self-cleavage was found to be 0.01.
To C13G U43G C45A belongs 0.18.
To C13U C18A G33C C45A belongs 0.03.
On to C13G U20C U43C, for which the self-cleavage amounted to 0.02.
As for C13G C18G G36A, the self-cleavage worked out at 0.05.
For the variant C13A G29A C31U G36A, the self-cleavage is 0.03.
Regarding C13G G30U A41C, the self-cleavage came to 0.02.
On to C13U A25G U32G U43G G44U, for which the self-cleavage stood at 0.04.
For the variant C13G A16U C31U C45U, the self-cleavage worked out at 0.
To C13G A26U U34A C42U G44U C46U belongs 0.04.
For C13G A25G G40U A41U U43G, the self-cleavage stood at 0.09.
Turning to C13G G29U C31A C45U, the self-cleavage was 0.2.
C13A G30A U43A: the self-cleavage amounted to 0.16.
For C13U A14G G30A, the self-cleavage came out at 0.21.
On to C13G A16C C37U, for which the self-cleavage came out at 0.07.
With C13G A24U A26U the figure was 0.09; with C13U A14C G27A, 0.04.
To C13G C15U U38C belongs 0.55; to C13U A25G C37A, 0.08.
For the variant C13A G35C C37G U43C, the self-cleavage came out at 0.03.
With C13G A26G A39C G40A G44A, the self-cleavage is 0.02.
On to C13G A25C U43A, for which the self-cleavage turned out to be 0.08.
For C13G G22U G27U, the self-cleavage is 0.19.
Regarding C13A G36U C45G, the self-cleavage is 0.08.
As to C13U A14G A26C G27A, the self-cleavage was 0.03.
Take C13G A26G G29U: the self-cleavage came to 0.12.
As for C13A G21A A39U C45G, the self-cleavage was determined as 0.07.
As to C13A G22U U32G, the self-cleavage amounted to 0.04.
In the case of C13A G27A U28G, the self-cleavage turned out to be 0.08.
To C13U A16U U20G belongs 0.01; to C13A G30U C31U A39U G44U, 0.02; to C13G C15U G17U G19U C45U, 0.01.
In the case of C13A G27U C42A, the self-cleavage was found to be 0.05.
Consider C13U C15G A24U U38G, for which the self-cleavage amounted to 0.04.
To C13A U20C G30C belongs 0.04.
With C13U A24C U28A G36C G44U C45U the figure was 0.02; with C13G A16G C18A G29U U34C C42G, 0; with C13G U28C G29C G40A, 0.02.
